# Source: the supplement of paper PMC6451100
# The list shows a part of the results. Values come from read counts of a selection and are noisy.
# Biological target: T1, Drosophila AGO2 (FLAG-tagged, S2-R+ lysate) (UniProt Q9VUQ5)
# T1 sequence: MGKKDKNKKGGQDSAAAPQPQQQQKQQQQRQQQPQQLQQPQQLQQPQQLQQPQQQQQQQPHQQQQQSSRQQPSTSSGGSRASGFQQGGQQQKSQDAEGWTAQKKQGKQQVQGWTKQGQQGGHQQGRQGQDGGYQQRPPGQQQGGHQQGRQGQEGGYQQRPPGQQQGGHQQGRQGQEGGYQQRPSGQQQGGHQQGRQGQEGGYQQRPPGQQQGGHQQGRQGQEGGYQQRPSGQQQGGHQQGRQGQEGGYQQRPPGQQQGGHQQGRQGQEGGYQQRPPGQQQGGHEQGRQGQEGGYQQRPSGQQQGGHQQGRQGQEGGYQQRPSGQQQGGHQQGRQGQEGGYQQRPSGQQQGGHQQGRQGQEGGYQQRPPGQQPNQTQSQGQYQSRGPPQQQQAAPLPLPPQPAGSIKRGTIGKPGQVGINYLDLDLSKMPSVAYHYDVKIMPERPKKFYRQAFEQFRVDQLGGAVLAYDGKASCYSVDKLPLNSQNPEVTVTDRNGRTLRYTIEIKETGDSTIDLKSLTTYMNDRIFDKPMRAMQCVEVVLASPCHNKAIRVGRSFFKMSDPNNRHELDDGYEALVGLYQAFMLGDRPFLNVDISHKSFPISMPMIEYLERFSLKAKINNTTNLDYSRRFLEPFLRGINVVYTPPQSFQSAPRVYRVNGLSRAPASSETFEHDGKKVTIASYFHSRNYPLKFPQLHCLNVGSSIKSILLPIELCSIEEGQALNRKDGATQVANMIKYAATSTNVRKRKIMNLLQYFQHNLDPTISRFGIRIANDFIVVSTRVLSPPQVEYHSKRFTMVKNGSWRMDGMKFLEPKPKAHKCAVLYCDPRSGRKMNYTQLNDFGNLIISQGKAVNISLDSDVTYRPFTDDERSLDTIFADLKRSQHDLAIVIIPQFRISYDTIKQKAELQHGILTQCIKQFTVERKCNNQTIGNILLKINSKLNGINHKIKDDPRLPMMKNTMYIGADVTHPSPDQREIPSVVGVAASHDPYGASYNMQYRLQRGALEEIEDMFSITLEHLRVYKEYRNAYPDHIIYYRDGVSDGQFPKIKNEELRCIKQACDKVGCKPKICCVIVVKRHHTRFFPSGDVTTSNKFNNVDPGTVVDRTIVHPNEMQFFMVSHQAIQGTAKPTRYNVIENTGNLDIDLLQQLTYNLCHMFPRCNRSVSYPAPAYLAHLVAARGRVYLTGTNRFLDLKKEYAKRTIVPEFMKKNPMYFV
# Test: AGO2 loading enrichment factor (IP read count / input read count, not library-size normalised) (ratio); higher = more efficient loading into AGO2
# Settings: randomized region: 5' 5N of miR-317 loop
# 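Also: Per-sequence enrichment computed with FASTAptamer, counting only reads that carry the expected constant 3′ region.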
row,Sequence,AGO2 loading enrichment factor
1,ATTGATGAAATGCAAGCAAG,0.369
2,TTGAGTGAAATGCAAGCAAG,0.508
3,TCAGGTGAAATGCAAGCAAG,0.532
4,AGGACTGAAATGCAAGCAAG,0.647
5,TTTGCTGAAATGCAAGCAAG,1.27
6,GCTGGTGAAATGCAAGCAAG,0.0728
7,TTAATTGAAATGCAAGCAAG,0.438
8,TCAAATGAAATGCAAGCAAG,0.402
9,CATACTGAAATGCAAGCAAG,0.232
10,ACCGATGAAATGCAAGCAAG,0.359
11,CAATCTGAAATGCAAGCAAG,0.388
12,CCTAGTGAAATGCAAGCAAG,0.259
13,CTAAGTGAAATGCAAGCAAG,0.474
14,GGGATTGAAATGCAAGCAAG,1.9
15,AAAGCTGAAATGCAAGCAAG,0.0951
16,ATAACTGAAATGCAAGCAAG,0.471
17,ATGATTGAAATGCAAGCAAG,0.446
18,TATAGTGAAATGCAAGCAAG,0.384
19,GAAACTGAAATGCAAGCAAG,0.404
20,GCGTGTGAAATGCAAGCAAG,0.0387
21,GACTGTGAAATGCAAGCAAG,0.144
22,CATTATGAAATGCAAGCAAG,0.245
23,CCGCTTGAAATGCAAGCAAG,0.274

row,Sequence,AGO2 loading enrichment factor
1,GAGAATGAAATGCAAGCAAG,0.504
2,ATTAGTGAAATGCAAGCAAG,0.408
3,ACACGTGAAATGCAAGCAAG,0.377
4,TTTCCTGAAATGCAAGCAAG,0.786
5,ATGGGTGAAATGCAAGCAAG,2
6,GTAAATGAAATGCAAGCAAG,0.491
7,CCTACTGAAATGCAAGCAAG,0.3
8,GGATGTGAAATGCAAGCAAG,0.718
9,GGTTGTGAAATGCAAGCAAG,0.171
10,ACACCTGAAATGCAAGCAAG,0.321
11,AATAGTGAAATGCAAGCAAG,0.352
12,GATAATGAAATGCAAGCAAG,0.421
13,ACTCTTGAAATGCAAGCAAG,0.137
14,ATAAGTGAAATGCAAGCAAG,0.471
15,CATATTGAAATGCAAGCAAG,0.265
16,TGACGTGAAATGCAAGCAAG,0.357
17,CCGGTTGAAATGCAAGCAAG,0.482
18,CCGTGTGAAATGCAAGCAAG,0.439
19,CGTCGTGAAATGCAAGCAAG,0.638
20,GTTGTTGAAATGCAAGCAAG,0.573
21,TCCATTGAAATGCAAGCAAG,0.477
22,TAGAATGAAATGCAAGCAAG,0.363
23,TGAGCTGAAATGCAAGCAAG,0.138

row,Sequence,AGO2 loading enrichment factor
1,ATCCCTGAAATGCAAGCAAG,0.462
2,TACTGTGAAATGCAAGCAAG,0.261
3,GCACATGAAATGCAAGCAAG,0.208
4,CGTCCTGAAATGCAAGCAAG,0.329
5,CCAAGTGAAATGCAAGCAAG,0.411
6,AGTAGTGAAATGCAAGCAAG,0.353
7,TGCAGTGAAATGCAAGCAAG,0.0708
8,TCGTGTGAAATGCAAGCAAG,0.526
9,ATGAATGAAATGCAAGCAAG,0.458
10,CGCAATGAAATGCAAGCAAG,0.237
11,GCACCTGAAATGCAAGCAAG,0.145
12,GTTTATGAAATGCAAGCAAG,0.338
13,GTCCATGAAATGCAAGCAAG,0.791
14,GGCAGTGAAATGCAAGCAAG,0.256
15,ACACTTGAAATGCAAGCAAG,0.0999
16,CGTACTGAAATGCAAGCAAG,0.356
17,GGCCGTGAAATGCAAGCAAG,1.2
18,ACTCGTGAAATGCAAGCAAG,0.35
19,TATTCTGAAATGCAAGCAAG,0.325
20,GCCACTGAAATGCAAGCAAG,0.255
21,CTTCCTGAAATGCAAGCAAG,0.153
22,CTTTGTGAAATGCAAGCAAG,0.345
23,GGCTCTGAAATGCAAGCAAG,0.463

row,Sequence,AGO2 loading enrichment factor
1,CGAACTGAAATGCAAGCAAG,0.427
2,GTGTATGAAATGCAAGCAAG,0.349
3,TGGACTGAAATGCAAGCAAG,0.581
4,TTTCATGAAATGCAAGCAAG,0.405
5,GACTCTGAAATGCAAGCAAG,0.354
6,AATGATGAAATGCAAGCAAG,0.361
7,ACTTGTGAAATGCAAGCAAG,0.111
8,TCCCTTGAAATGCAAGCAAG,0.415
9,GATGCTGAAATGCAAGCAAG,0.124
10,AACGCTGAAATGCAAGCAAG,0.0998
11,GAAGATGAAATGCAAGCAAG,0.618
12,CTCATTGAAATGCAAGCAAG,0.564
13,AATTATGAAATGCAAGCAAG,0.406
14,TGTTCTGAAATGCAAGCAAG,0.261
15,GTGAATGAAATGCAAGCAAG,0.509
16,CTCGCTGAAATGCAAGCAAG,0.0286
17,GCTATTGAAATGCAAGCAAG,0.263
18,CTCTGTGAAATGCAAGCAAG,0.313
19,CCTTATGAAATGCAAGCAAG,0.308
20,TGCTGTGAAATGCAAGCAAG,0.116
21,GACCTTGAAATGCAAGCAAG,0.152
